Patent publication US10538555B2, “Macrocyclic inhibitors of the PD-1/PD-L1 and CD80(B7-1)/PD-L1 protein/protein interactions” (BRISTOL-MYERS SQUIBB COMPANY, priority 2014, dated 2020)
At least one compound was matched to its structure with a doubt left. Where a SMILES comes first, the peptide text is derived from it. Bridges are numbered along the chain shown (N, C = ends). [ ]: non-standard residue; d: D form. Trp(1-CH2COOH) = N[C@@H](Cc1cn(CC(=O)O)c2ccccc12)C(=O)O; NMeW = CN[C@@H](Cc1c[nH]c2ccccc12)C(=O)O; Bta = N[C@@H](Cc1csc2ccccc12)C(=O)O; Hyp = O=C(O)[C@@H]1C[C@@H](O)CN1; NMeNle = CCCC[C@H](NC)C(=O)O; NMeA = CN[C@@H](C)C(=O)O; Dab = NCC[C@H](N)C(=O)O; Dap = NC[C@H](N)C(=O)O

target: T1, Human PD-L1/PD-1 (Homo sapiens, UniProt Q9NZQ7); experiment: HTRF Human PD-L1/PD-1 binding assay (PD-1-Ig/PD-L1-His); conditions: PD-L1-His 10 nM, PD-1-Ig 20 nM; class symbol; read-out: HTRF Human PD-L1/PD-1 Binding Assay IC50 Range
T1 construct: TVMV protease cleavage site (C); made in house; host or cells: HEK293T cells
T1 sequence (Q9NZQ7 with tags, fused parts or gaps): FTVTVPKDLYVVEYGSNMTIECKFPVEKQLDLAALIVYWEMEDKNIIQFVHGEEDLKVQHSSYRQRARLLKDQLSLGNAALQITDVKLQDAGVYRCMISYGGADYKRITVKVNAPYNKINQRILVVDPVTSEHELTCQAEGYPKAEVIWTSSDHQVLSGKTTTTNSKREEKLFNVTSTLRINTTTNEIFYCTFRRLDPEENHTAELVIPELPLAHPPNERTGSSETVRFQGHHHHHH
Description: Methods for Testing the Ability of Macrocyclic Peptides to Compete for the Binding of PD-1 to PD-L1 Using Homogenous Time-Resolved Fluorescence (HTRF) Binding Assays
The ability of the macrocyclic peptides of the present disclosure to bind to PD-L1 was investigated using a PD-1/PD-L1 Homogenous Time-Resolved Fluorescence (HTRF) binding assay.
Homogenous Time-Resolved Fluorescence (HTRF) Assays of Binding of Soluble PD-1 to Soluble PD-L1. Soluble PD-1 and soluble PD-L1 refers to proteins with carboxyl-end truncations that remove the transmembrane-spanning regions and are fused to heterologous sequences, specifically the Fc portion of the human immunoglobuling G sequence (Ig) or the hexahistidine epitope tag (His). All binding studies were performed in an HTRF assay buffer consisting of dPBS supplemented with 0.1% (w/v) bovine serum albumin and 0.05% (v/v) Tween-20. For the PD-1-Ig/PD-L1-His binding assay, inhibitors were pre-incubated with PD-L1-His (10 nM final) for 15 m in 4 μl of assay buffer, followed by addition of PD-1-Ig (20 nM final) in 1 μl of assay buffer and further incubation for 15 m. PD-L1 fusion proteins from either human, cynomolgus macaques, or mouse were used. HTRF detection was achieved using europium crypate-labeled anti-Ig monoclonal antibody (1 nM final) and allophycocyanin (APC) labeled anti-His monoclonal antibody (20 nM final). Antibodies were diluted in HTRF detection buffer and 5 μl was dispensed on top of binding reaction. The reaction was allowed to equilibrate for 30 minutes and signal (665 nm/620 nm ratio) was obtained using an EnVision fluorometer. Additional binding assays were established between PD-1-Ig/PD-L2-His (20 and 5 nM, respectively), CD80-His/PD-L1-Ig (100 and 10 nM, respectively) and CD80-His/CTLA4-Ig (10 and 5 nM, respectively). Competition studies between biotinylated Compound No. 71 and human PD-L1-His were performed as follows. Macrocyclic peptide inhibitors were pre-incubated with PD-L1-His (10 nM final) for 60 minutes in 4 μl of assay buffer followed by addition of biotinylated Compound No. 71 (0.5 nM final) in 1 μl of assay buffer. Binding was allowed to equilibrate for 30 minutes followed by addition of europium crypated labeled Streptavidin (2.5 pM final) and APC-labeled anti-His (20 nM final) in 5 μl of HTRF buffer. The reaction was allowed to equilibrate for 30 m and signal (665 nm/620 nm ratio) was obtained using an EnVision fluorometer.
Recombinant Proteins. Carboxyl-truncated human PD-1 (amino acids 25-167) with a C-terminal human Ig epitope tag [hPD-1 (25-167)-3S-IG] and human PD-L1 (amino acids 18-239) with a C-terminal His epitope tag [hPD-L1([…])-tobacco vein mottling virus protease cleavage site (TVMV)-His] were expressed in HEK293T cells and purified sequentially by rProteinA affinity chromatography and size exclusion chromatography.

Compared with `CCCC[C@H]1C(=O)N(C)[C@@H](CCCC)C(=O)N[C@@H](CCC(=O)O)C(=O)N[C@H](C(=O)NCC(N)=O)CSCC(=O)N[C@@H](Cc2ccc(O)cc2)C(=O)N(C)[C@@H](C)C(=O)N[C@@H](CC(N)=O)C(=O)N2CCC[C@H]2C(=O)N[C@@H](Cc2c[nH]cn2)C(=O)N[C@@H](CCC(=O)O)C(=O)N2C[C@H](O)C[C@H]2C(=O)N[C@@H](Cc2c[nH]c3ccccc23)C(=O)N[C@@H](CCC(=O)O)C(=O)N[C@@H](Cc2c[nH]c3ccccc23)C(=O)N1C` [Example 5156] ({CH2CO}-Y[NMeA]NPHE[Hyp]WEW[NMeNle][NMeNle]ECG-NH2; thioether N-14), `CCCC[C@H]1C(=O)N(C)[C@@H](CCCC)C(=O)N[C@@H](CC(C)C)C(=O)N[C@H](C(=O)NCC(N)=O)CSCC(=O)N[C@@H](Cc2ccc(O)cc2)C(=O)N(C)[C@@H](C)C(=O)N[C@@H](CC(N)=O)C(=O)N2CCC[C@H]2C(=O)N[C@@H](Cc2c[nH]cn2)C(=O)N[C@@H](CCC(=O)O)C(=O)N2C[C@H](O)C[C@H]2C(=O)N[C@@H](Cc2c[nH]c3ccccc23)C(=O)N[C@@H](CCN)C(=O)N[C@@H](Cc2csc3ccccc23)C(=O)N1C` [Example 5211] ({CH2CO}-Y[NMeA]NPHE[Hyp]W[Dab][Bta][NMeNle][NMeNle]LCG-NH2; thioether N-14) is lower in IC50: 100 to 990 nM for the first, 10 to 99.9 nM for the second.

First: CCCC[C@H]1C(=O)N(C)[C@@H](CCCC)C(=O)N[C@@H](CN)C(=O)N[C@H](C(=O)NCC(N)=O)CSCC(=O)N[C@@H](Cc2ccc(O)cc2)C(=O)N(C)[C@@H](C)C(=O)N[C@@H](CC(N)=O)C(=O)N2CCC[C@H]2C(=O)N[C@@H](Cc2c[nH]cn2)C(=O)N[C@@H](CCC(N)=O)C(=O)N2C[C@H](O)C[C@H]2C(=O)N[C@@H](Cc2c[nH]c3ccccc23)C(=O)N[C@@H](CO)C(=O)N[C@@H](Cc2cn(CC(=O)O)c3ccccc23)C(=O)N1C [Example 5187] ({CH2CO}-Y[NMeA]NPHQ[Hyp]WS[Trp(1-CH2COOH)][NMeNle][NMeNle][Dap]CG-NH2; thioether N-14)
Second: CCCC[C@H]1C(=O)N(C)[C@@H](CCCC)C(=O)N[C@@H](CN)C(=O)N[C@H](C(=O)NCC(N)=O)CSCC(=O)N[C@@H](Cc2ccc(O)cc2)C(=O)N(C)[C@@H](C)C(=O)N[C@@H](CC(N)=O)C(=O)N2CCC[C@H]2C(=O)N[C@@H](CN)C(=O)N[C@@H](CC(C)C)C(=O)N2C[C@H](O)C[C@H]2C(=O)N[C@@H](Cc2c[nH]c3ccccc23)C(=O)N[C@@H](CO)C(=O)N[C@@H](Cc2cn(CC(=O)O)c3ccccc23)C(=O)N1C [Example 6309] ({CH2CO}-Y[NMeA]NP[Dap]L[Hyp]WS[Trp(1-CH2COOH)][NMeNle][NMeNle][Dap]CG-NH2; thioether N-14)
The IC50 of the first is lower: 1 to 9.9 nM for the first, 10 to 99.9 nM for the second. The first is the more potent here.

`CCCC[C@H]1C(=O)N(C)[C@@H](Cc2c[nH]c3ccccc23)C(=O)N[C@@H](CN)C(=O)N[C@H](C(=O)NCC(N)=O)CSCC(=O)N[C@@H](Cc2ccc(O)cc2)C(=O)N(C)[C@@H](C)C(=O)N[C@@H](CC(N)=O)C(=O)N2CCC[C@H]2C(=O)N[C@@H](Cc2c[nH]cn2)C(=O)N[C@@H](CCC(=O)O)C(=O)N2C[C@H](O)C[C@H]2C(=O)N[C@@H](Cc2c[nH]c3ccccc23)C(=O)N[C@@H](CCN)C(=O)N[C@@H](Cc2c[nH]c3ccccc23)C(=O)N1C` [Example 5209] ({CH2CO}-Y[NMeA]NPHE[Hyp]W[Dab]W[NMeNle][NMeW][Dap]CG-NH2; thioether N-14) and `CCCC[C@H]1C(=O)N(C)[C@@H](CCCC)C(=O)N[C@@H](CCC(=O)O)C(=O)N[C@H](C(=O)NCC(N)=O)CSCC(=O)N[C@@H](Cc2ccc(O)cc2)C(=O)N(C)[C@@H](C)C(=O)N[C@@H](CC(=O)O)C(=O)N2CCC[C@H]2C(=O)N[C@@H](Cc2c[nH]cn2)C(=O)N[C@@H](CCCCN)C(=O)N2C[C@H](O)C[C@H]2C(=O)N[C@@H](Cc2c[nH]c3ccccc23)C(=O)N[C@@H](CCCCN)C(=O)N[C@@H](Cc2cn(CC(=O)O)c3ccccc23)C(=O)N1C` [Example 6162] ({CH2CO}-Y[NMeA]DPHK[Hyp]WK[Trp(1-CH2COOH)][NMeNle][NMeNle]ECG-NH2; thioether N-14) fall in the same range of IC50: 1 to 9.9 nM for the first, 1 to 9.9 nM for the second.

same assay, conditions: PD-L1-His 10 nM, PD-1-Ig 20 nM; read-out: HTRF Human PD-L1/PD-1 Binding Assay IC50

Going from `CCCC[C@H]1C(=O)N(C)[C@@H](CCCC)C(=O)N[C@@H](CCC(=O)O)C(=O)N[C@H](C(=O)NCC(N)=O)CSCC(=O)N[C@@H](Cc2ccc(O)cc2)C(=O)N(C)[C@@H](C)C(=O)N[C@@H](CC(N)=O)C(=O)N2CCC[C@H]2C(=O)N[C@@H](Cc2c[nH]cn2)C(=O)N[C@@H](CCC(=O)O)C(=O)N2C[C@H](O)C[C@H]2C(=O)N[C@@H](Cc2c[nH]c3ccccc23)C(=O)N[C@@H](CCC(=O)O)C(=O)N[C@@H](Cc2c[nH]c3ccccc23)C(=O)N1C` [Example 5156] ({CH2CO}-Y[NMeA]NPHE[Hyp]WEW[NMeNle][NMeNle]ECG-NH2; thioether N-14) to `CCCC[C@H]1C(=O)N(C)[C@@H](CCCC)C(=O)N[C@@H](CN)C(=O)N[C@H](C(=O)NCC(N)=O)CSCC(=O)N[C@@H](Cc2ccc(O)cc2)C(=O)N(C)[C@@H](C)C(=O)N[C@@H](CC(N)=O)C(=O)N2CCC[C@H]2C(=O)N[C@@H](CN)C(=O)N[C@@H](CC(C)C)C(=O)N2C[C@H](O)C[C@H]2C(=O)N[C@@H](Cc2c[nH]c3ccccc23)C(=O)N[C@@H](CO)C(=O)N[C@@H](Cc2cn(CC(=O)O)c3ccccc23)C(=O)N1C` [Example 6309] ({CH2CO}-Y[NMeA]NP[Dap]L[Hyp]WS[Trp(1-CH2COOH)][NMeNle][NMeNle][Dap]CG-NH2; thioether N-14), the IC50 falls from 767 nM to 11.1 nM (69-fold). The second is the more potent here.
